Test results published in PubChem BioAssay AID1745853 (National Center for Advancing Translational Sciences (NCATS), 2022).
The other results are listed elsewhere or left out. Shown are side measurements of this screen, not its main read-out; they come without a call.

Columns and labels:
Test in all cases: Primary Screen for Target Class Profiling of Small Molecule Inhibitors of Methyltransferases
[1] = target: Glycine N-methyltransferase (Homo sapiens) (UniProt Q14749); conditions: purified enzyme, MTase-Glo SAH luminescence; measured here: GNMT inhibition; at 40 µM; stronger effect = lower value
How it was run: (§1)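 Each enzyme was reacted with SAM and its substrate, with compounds tested once at 40 uM; SAH formed was read by MTase-Glo luminescence.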

[2] = target: Guanidinoacetate N-methyltransferase (Homo sapiens) (UniProt Q14353); conditions: purified enzyme, MTase-Glo SAH luminescence; measured here: GAMT inhibition; at 40 µM; stronger effect = lower value
How it was run: as §1

[3] = target: Histamine N-methyltransferase (Homo sapiens) (UniProt P50135); conditions: purified enzyme, MTase-Glo SAH luminescence; measured here: HNMT inhibition; at 40 µM; stronger effect = lower value
How it was run: as §1

[4] = target: Nicotinamide N-methyltransferase (Homo sapiens) (UniProt P40261); conditions: purified enzyme, MTase-Glo SAH luminescence; measured here: NNMT inhibition; at 40 µM; stronger effect = lower value
How it was run: as §1

[5] = target: Phenylethanolamine N-methyltransferase (Homo sapiens) (UniProt P11086); conditions: purified enzyme, MTase-Glo SAH luminescence; measured here: PNMT inhibition; at 40 µM; stronger effect = lower value
How it was run: as §1
% is scaled to controls: 0 for no effect and ±100 for the full control effect.

SMILES | activity change, negative = inhibition [1] [%] | activity change, negative = inhibition [2] [%] | activity change, negative = inhibition [3] [%] | activity change, negative = inhibition [4] [%] | activity change, negative = inhibition [5] [%]
O=C(Cn1ccc2cc(S(=O)(=O)N3CCCCC3)ccc21)NC1CCCc2ccccc21 (stereo not given) | 5.15 | 1.47 | 3.3 | 1.64 | -0.078
Cc1ccc(C)c(N2C(=O)c3cc4occc4n3CC2(C)C(=O)NC2CCCCCC2)c1 (stereo not given) | -1.45 | 0 | -8.94 | -3.41 | -1.36
CC(C)c1nc(CN(C)C(=O)N[C@H](C(=O)N[C@@H](Cc2ccccc2)C[C@H](O)[C@H](Cc2ccccc2)NC(=O)OCc2cncs2)C(C)C)cs1 | -3.31 | 0.829 | 7.85 | -20.7 | -2.22
CC1c2cccn2-c2sc3c(c2CN1C(=O)NC1CCCCC1)CCN(C)C3 (stereo not given) | -4.24 | 2.13 | -0.266 | -3.6 | -0.894
CC(C)(C)c1cc2n(n1)CC(C)(C(=O)NCc1ccccc1)N(c1ccc(F)cc1F)C2=O (stereo not given) | 8.92 | 1.98 | 10.1 | 8.37 | 4.96
CN(Cc1cccs1)Cc1cccn1C | -12.2 | -7.99 | -29.2 | -8.69 | -12.1
COc1ccccc1N1CCN(CC[C@@H]2CC[C@H](O)[C@@H](C(=O)Nc3ccccc3)O2)CC1 | -4.42 | -5.33 | -2.68 | -9.08 | -7.39
C/C(CO)=C1/CCC23COC(C2)C(O)(C(=O)O)CCC13 (stereo not given) | -1.91 | -7 | 4.55 | -17.5 | -4.41
CCCCc1nn(CC(=O)N2CCOC(c3ccccc3)C2)c(=O)n1CC (stereo not given) | -0.943 | -0.219 | -1.52 | 0.111 | -5.04
CCCOC(=O)c1c(-c2ccccc2)nc(CC)c(C(=O)SCC)c1CCC | -5.29 | 4.03 | -1.73 | -9.13 | 3.5
O=C(CNC(=O)c1ccc(-c2cccc(C(F)(F)F)c2)cc1)NCC(F)(F)F | -0.635 | -3.28 | -0.99 | -2.47 | 3.85
CC(C)NC(=O)NC[C@H]1OC[C@@H](NCc2ncc[nH]2)[C@@H]1O | 1 | 1.61 | 2.88 | 0.707 | 16.6
CCC(C)CC(=O)OC1C(=O)C(CO)=CC(O)C1C(C)C (stereo not given) | -36.4 | -8.31 | -9.27 | -29.6 | -4.67
COCCn1nnnc1C1CC2(CCOCC2)C(=O)N1CCc1ccc(OC)c(OC)c1 (stereo not given) | -0.147 | 2.06 | 0.479 | -0.431 | 2.64
O=C(NCc1ccc2c(c1)OCO2)c1sc(=S)n2c1[nH]c(=O)c1cc(Cl)ccc12 | -28.7 | 0.844 | -1.19 | -41.4 | -28.3
Cc1ccc(CNC(=O)C2(C)Cn3nc(C(=O)NCCN(C)C)cc3C(=O)N2C)cc1 (stereo not given) | -0.087 | 1.28 | -2.78 | 1.93 | -0.846
CCN(C1CCOCC1)C1CN(C(=O)c2ccccn2)C1 | -1.24 | 7.93 | 1.34 | 0.589 | -0.819
Cc1ccc(C2=NC3(CCN(C(=O)COc4cccc(C)c4)CC3)ON2)cc1 | -5.88 | -3.68 | -4.65 | -6.06 | -3.45
O=C(c1ccsc1)N1CCc2c(nc3cc[nH]n3c2=O)C1 | -5.84 | -8.25 | -3.9 | -11.8 | -10.9
CCC(C)(OC(C)=O)C(=O)O[C@H]1[C@H](OC(C)=O)[C@]2(CO)[C@H](O)[C@H](O)[C@]3(C)C(=CCC4[C@@]5(C)CC[C@H](O[C@@H]6O[C@H](C(=O)O)[C@@H](O)[C@H](O[C@@H]7OC[C@H](O)[C@H](O[C@@H]8OC[C@H](O)[C@H](O)[C@H]8O)[C@H]7O)[C@H]6O[C@@H]6O[C@H](CO)[C@@H](O)[C@H](O)[C@H]6O)C(C)(C)C5CC[C@]43C)[C@@H]2CC1(C)C (stereo not given in full) | -3.06 | -1.23 | 9.15 | -15 | -10.4

SMILES | activity change, negative = inhibition [1] [%] | activity change, negative = inhibition [2] [%] | activity change, negative = inhibition [3] [%] | activity change, negative = inhibition [4] [%] | activity change, negative = inhibition [5] [%]
C=CCn1c(=O)c2ccc(C(=O)NC(C)C)cc2n2c(=O)n(CC(=O)NCCc3ccccc3)nc12 | 4.78 | 1.77 | 3.48 | 5.31 | 6.5
Cc1ccc(CNC(=O)c2ncn3c2C(=O)N(C2CC2)C(C)(C(=O)NCc2cccc(C)c2)C3)cc1 (stereo not given) | 3.56 | 3.11 | 12.3 | 7.8 | 9.06
CCCN1C(=O)c2cc(C(=O)NCCc3ccc(OCC)cc3)nn2CC1(C)C(=O)NC1CCCC1 (stereo not given) | 2.55 | 0 | -19.5 | 5.88 | 2.32
COc1ccc(Cl)cc1N1C(=O)CSc2c(c3ccccc3n2C)C1C(=O)NCc1ccccc1 (stereo not given) | 4.55 | 0 | 10.5 | 5.59 | 5.68
CC1(C(=O)NC2CCCCC2)Cn2c(ccc2-c2ccco2)C(=O)N1CCc1ccccc1Cl (stereo not given) | -18.1 | 4.75 | -13.8 | -16.6 | -3.58
COc1c(O)cc2c(c1O)[C@@H]1O[C@H](CO)[C@@H](O)[C@H](O)[C@H]1OC2=O | -2.78 | -0.371 | 4.75 | -11.5 | -7.87
O=C(O)c1ccnc(-c2cc(C(=O)NCCc3ccccc3)ccn2)c1 | -5.95 | -0.415 | -3.72 | -19.3 | -12.3
COc1ccc(C(=O)NC[C@@H]2CC[C@H]3C[C@@H]2C3(C)C)cc1 | -3.63 | -3.29 | 0.495 | -21.4 | -6.46
OC[C@@H]1CNC[C@H]1c1nc(-c2ccncc2)no1 | -2.97 | -2.22 | -0.68 | -4.12 | -2.88
CCCCC(F)(F)[C@@]1(O)CC[C@H]2[C@H](CC(=O)[C@@H]2CCCCCCC(=O)O)O1 | -0.347 | 4.62 | 10.4 | -9.38 | 4.93
Cc1ccc(Cl)cc1N1CCN(C(=O)CCc2nnc3n(C)c(=O)c4ccccc4n23)CC1 | -3.25 | 0 | 6.01 | 4.27 | -3.06
Nc1cccc(-c2cc3c(Oc4cccc(O)c4)ncnc3[nH]2)c1 | -51.7 | -24.7 | -58 | -47.2 | -27.4
CC1OC1P(=O)(O)O (stereo not given) | -9.75 | -0.403 | -2.85 | -10.9 | 1.56
CC1(C(=O)NC2CCCCC2)Cn2c(ccc2-c2ccco2)C(=O)N1Cc1ccccc1Cl (stereo not given) | -9.62 | -9.47 | 4.23 | -13.2 | -8.57
O=C(NCc1cc(F)ccc1F)[C@@H]1CNC[C@H]1COc1cccnc1 | -1.21 | -1.23 | 0.96 | -2.56 | -10.1
COc1ccc(-n2nc(C(N)=O)c3c2C(=O)N(c2ccc(N4CCCCC4=O)cc2)CC3)cc1 | -5.57 | -2.31 | 6.78 | -17.1 | -0.402
O=S(=O)(NCCn1c(CCc2ccccc2)nc2ccccc21)c1ccccc1Cl | -2.99 | 2.84 | -1.64 | -4.71 | -0.116
COc1ccc2cc3n(c2c1)CC(C)(C(=O)NC1CCCCCC1)N(CCN1CCOCC1)C3=O (stereo not given) | -3.84 | 1.72 | 0.714 | -4.63 | 0.1
CCc1ccc(N2C(=O)CSc3c(c4ccccc4n3C)C2C(=O)NCCC(C)C)cc1 (stereo not given) | 5.59 | 0 | -1.05 | 1.25 | 4.54
CN(C)Cc1cn(C[C@H]2C[C@@H](NS(=O)(=O)c3ccccc3)[C@H](O)[C@@H]2O)nn1 | -2.25 | -6.68 | -24.2 | -18.1 | -4.38

SMILES | activity change, negative = inhibition [1] [%] | activity change, negative = inhibition [2] [%] | activity change, negative = inhibition [3] [%] | activity change, negative = inhibition [4] [%] | activity change, negative = inhibition [5] [%]
COC1C=C(C)C(O)(CO)C2(C)CCCC(C)(C)C12 (stereo not given) | 1.28 | 2.22 | 7.81 | -13.8 | -3.92
COc1ccc(NC(=O)Cn2c(=O)oc3cc(S(=O)(=O)NCc4ccccc4)ccc32)cc1OC | 10.1 | 6.47 | 9.29 | 8.47 | 8.38
COc1cccc(CNC(=O)c2ccc3c(=O)nc4c(-c5cccc(C)c5)n[nH]n4c3c2)c1 | -12.6 | 0 | -2.63 | -5.57 | -6.55
Cc1cccc(CCNC(=O)CCCc2nnc3n4nc(C)nc4c4ccccc4n23)c1 | 0.679 | 3.02 | 9.28 | 13.8 | 1.13
CC1(C(=O)NC2CCCCC2)Cn2c(cc3sccc32)C(=O)N1Cc1ccc2c(c1)OCO2 (stereo not given) | 1.04 | 2.28 | 5.31 | -4.99 | 2.16
COc1cc(C)c(C(=O)O[C@H]2[C@@H](O)[C@H](n3ccc(=O)[nH]c3=O)O[C@@H]2CO)c(OC)c1 | 4.29 | -0.589 | 5.64 | -9.85 | -0.159
COc1ccc(OC)c(S(=O)(=O)N2CCN(S(=O)(=O)c3cc(OC)ccc3OC)CC2)c1 | -8.99 | 0.735 | -3.64 | -5.24 | -6.33
CCCC1c2ccc(C)n2CCN1C(=O)NCc1ccc(F)cc1 (stereo not given) | -4.62 | 0.122 | -10.1 | -0.902 | -8.59
COc1ccccc1CNC(=O)C1c2c(n(C)c3ccccc23)SCC(=O)N1c1cc(Cl)ccc1OC (stereo not given) | 13.2 | 2.66 | 7.64 | 9.26 | 10.8
O=C(NCCCc1ccccc1)c1ccc2c(=O)nc3c(-c4cccc(F)c4)n[nH]n3c2c1 | -0.85 | 0 | 6.87 | -4.46 | -0.415
O=C(NC1CCCCCC1)c1ccc2c(c1)CC(=O)N2Cc1cccc(F)c1 | -5.45 | -5.3 | -2.6 | -5.61 | -5.29
Cc1cc(C(F)(F)F)nc(CNc2cc(C3CC(O)C3)nc(N)n2)n1 (stereo not given) | -0.798 | -13.7 | -2.94 | -9.73 | -7.23
Cc1ccc(Cn2c(=O)c3ccc(C(=O)NC(C)C)cc3n3c(=O)n(Cc4cccc(Cl)c4)nc23)cc1 | 7.79 | 0 | 8.68 | 14.7 | 11.6
Cc1noc(C)c1-c1cc2c(cc(C)n2CCN(C)C)c(Nc2ccncn2)n1 | -71.3 | -60.2 | -82.8 | -64.4 | -51.2
COc1c(C)c(OCC=C(C)C)cc2c1COC2=O | 0 | -0.916 | -1 | -21.4 | -6.17
CC1CCCC(NC(=O)C2(C)Cn3c(cc4sccc43)C(=O)N2C2CCCCCC2)C1C (stereo not given) | 2.44 | 0 | 4.06 | -2.07 | 2.22
CC1CCN(S(=O)(=O)c2ccc3c(ccn3CC(=O)NCc3ccc(OC(C)C)cc3)c2)CC1 | 5.48 | 0.969 | 3.33 | 3.87 | 1.23
Cc1nn(C)c(C)c1S(=O)(=O)NCCc1noc(-c2cccnc2)n1 | -2.52 | 0.649 | 0.986 | -2.27 | -2.81
